Measured values as given in PMC4336329 (PLoS ONE, 2015).
Hit rate of the full screen: of about 310,000 compounds, about 2,200 (0.71%) showed an effect of 50% or more. The effect is printed as a negative number. The list shows a part of the results.

biological target: human ether-à-go-go-related gene (hERG) potassium channel (human, UniProt Q12809); test: primary screen, population patch clamp on CHO cells stably expressing hERG
Sequence (Q12809 whole entry, looked up): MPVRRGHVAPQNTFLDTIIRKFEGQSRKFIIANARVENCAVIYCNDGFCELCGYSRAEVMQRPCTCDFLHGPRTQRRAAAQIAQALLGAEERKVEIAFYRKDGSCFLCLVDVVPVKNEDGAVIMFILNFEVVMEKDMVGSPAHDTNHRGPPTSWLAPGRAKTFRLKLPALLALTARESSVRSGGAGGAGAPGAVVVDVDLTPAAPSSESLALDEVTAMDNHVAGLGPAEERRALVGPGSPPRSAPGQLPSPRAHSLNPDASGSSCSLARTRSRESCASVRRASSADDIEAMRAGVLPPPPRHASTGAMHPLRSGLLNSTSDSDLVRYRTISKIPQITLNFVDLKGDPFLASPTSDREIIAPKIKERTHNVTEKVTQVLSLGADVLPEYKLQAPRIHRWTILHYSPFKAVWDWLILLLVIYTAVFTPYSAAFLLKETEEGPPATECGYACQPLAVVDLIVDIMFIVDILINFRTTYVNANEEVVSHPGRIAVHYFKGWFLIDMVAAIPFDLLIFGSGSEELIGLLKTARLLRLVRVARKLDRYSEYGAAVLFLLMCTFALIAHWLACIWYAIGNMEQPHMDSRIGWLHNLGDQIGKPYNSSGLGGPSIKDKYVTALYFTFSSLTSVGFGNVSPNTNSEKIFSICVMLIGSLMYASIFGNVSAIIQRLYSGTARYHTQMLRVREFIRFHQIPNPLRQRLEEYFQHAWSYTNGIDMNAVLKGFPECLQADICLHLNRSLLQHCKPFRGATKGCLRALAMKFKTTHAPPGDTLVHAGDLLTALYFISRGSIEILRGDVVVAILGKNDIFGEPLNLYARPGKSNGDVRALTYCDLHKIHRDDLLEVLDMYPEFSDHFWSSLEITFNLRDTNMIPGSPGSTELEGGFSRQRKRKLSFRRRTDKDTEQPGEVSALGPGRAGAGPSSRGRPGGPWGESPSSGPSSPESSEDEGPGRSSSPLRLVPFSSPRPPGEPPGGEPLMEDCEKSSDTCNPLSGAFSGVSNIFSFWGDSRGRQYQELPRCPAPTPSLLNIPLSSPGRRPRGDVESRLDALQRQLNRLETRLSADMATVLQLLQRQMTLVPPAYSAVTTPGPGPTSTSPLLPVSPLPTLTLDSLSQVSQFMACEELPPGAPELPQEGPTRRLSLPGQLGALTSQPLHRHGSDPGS

Row | SMILES | hERG current change (%, negative = inhibition) at 1uM [%]
1 | Cc1ccc(S(=O)(=O)N2CCN(C3CC(=O)N(CCc4ccccc4)C3=O)CC2)cc1C (centres unmarked) | 8.31
2 | Cc1cc(C)c2cc(C(=O)Nc3ccccc3)[nH]c2c1 | 15.3
3 | CCCCOc1ccc(/C=N/Nc2cc(N3CCOCC3)nc(C)n2)cc1 | -1.03
4 | CC1CN(CCOc2ccc([N+](=O)[O-])cc2)CC(C)O1.O=C(O)C(=O)O (centres unmarked) | -13.6
5 | Cc1cc(C)c2c(c1)cc(C)c1nnc(SCC(=O)Nc3ccc(S(=O)(=O)N4CCCCC4)cc3)n12 | 14.2
6 | O=S1(=O)c2ccccc2N=NN1Cc1ccc(Cl)cc1 | 20.8
7 | Cc1ccc2nc(N3CCOCC3)c3nncn3c2c1 | 3.23
8 | CSCc1ccc(C(=O)NCc2ccccc2)cc1 | 7.45
9 | O=C(Cn1ccc(C(F)(F)F)n1)N/N=C/c1ccc(N2CCOCC2)cc1 | 14.8
10 | CCOc1ccc(OCCC(=O)OCC(=O)Nc2ccc(Cl)cn2)cc1 | 7.79
11 | C/C(=N\Nc1ccc(C(=O)O)cc1)c1ccc(Cl)s1 | 11.3
12 | COc1ccc(NS(=O)(=O)c2ccc3c(c2)oc(=O)n3C)cc1Cl | 15.3
13 | CCOCCCNC(=O)C1(O)c2cc(Br)ccc2NC(=O)N1c1ccc(CC)cc1 (centres unmarked) | 20
14 | CCCCn1c(O)c(C(CC)=NCc2cccnc2)c(=O)[nH]c1=O | -13.1
15 | CC(C(=O)N(C1CC1)C1(C(=O)Nc2ccccc2)CCCC1)N1C(=O)c2ccccc2C1=O (centres unmarked) | 10.9
16 | c1ccc2c(c1)c1cccc3ccc4cccc2c4c31 | 8.22
17 | COc1ccc(N(CC(=O)N/N=C/c2ccc(F)cc2)S(=O)(=O)c2ccccc2)cc1 | 3.25
18 | O=C(C1CCCN(S(=O)(=O)c2ccc(Br)cc2)C1)N1CCN(Cc2ccccc2)CC1 (centres unmarked) | -15.1
19 | CC(C)(C)OC(=O)CN1C(=O)S/C(=C\c2ccc(-c3cccc(C(=O)O)c3)o2)C1=O | 6.33
20 | O=C(O)Cc1cn(Cc2cccc(Cl)c2)c2ccccc12 | 14.6
21 | CCOc1ccc(Nc2cc3n(c(=O)n2)CCc2cc(OC)c(OC)cc2-3)cc1 | 9
22 | COc1ccc(-c2ocnc2C(=O)N2CCN(C(c3ccccc3)c3ccccc3)CC2)cc1 | 3.45
23 | Cc1ccc(CS(=O)(=O)CCC(=O)NCc2ccc(F)cc2)cc1 | 9.81

Row | SMILES | hERG current change (%, negative = inhibition) at 1uM [%]
24 | COCCCn1c(SCC(=O)Nc2oc(C)c3c(C)n[nH]c(=O)c23)nc2ccccc2c1=O | 0.833
25 | O=c1[nH]c(Cc2cccc(C(F)(F)F)c2)nc2ccccc12 | 14.2
26 | O=C(COc1ccccc1)NCCc1cnc[nH]1 | 8.73
27 | CC1CCC(NC(=O)CN(C)CC(=O)Nc2ccc(F)cc2)CC1 (centres unmarked) | 11.9
28 | CCN(CC)C(=O)CS(=O)CC(=O)Nc1cc(OCCOC)c(Cl)cc1Cl (centres unmarked) | 11.1
29 | Cc1ccc(S(=O)(=O)NCC(=O)OCc2csc(-c3ccccc3)n2)cc1 | 14.2
30 | COCC(=O)N1CCC(Oc2ccc(C(=O)N3C[C@@H](C)O[C@@H](C)C3)cc2)CC1 | -10.4
31 | CC(C)=CC(=O)Nc1nnc(C)s1 | 4.93
32 | CCNC(=O)CCCOc1ccc(Cl)cc1Cl | 17.4
33 | C=CCn1c(-c2cccc(OC)c2)n[nH]c1=S | 10.8
34 | Cc1ccc(C(=O)OCC(=O)Nc2cc(F)ccc2F)cc1NC(=O)c1ccco1 | 12.2
35 | CC(C)C(NC(=O)c1ccc(Cl)cc1)C(=O)NCC1CCCO1 (centres unmarked) | 11.7
36 | Cc1cc(C)n(C(C)CC(=O)Nc2ccc3c(c2)OCO3)n1 (centres unmarked) | 14.8
37 | CO/N=C/C(=N\Nc1ccc(OC)cc1)C(=O)c1ccc(OC)cc1 | 27.5
38 | O=C(Nc1ccc(Cl)cn1)c1ccc2c(Cl)c3c(nc2c1)CCC3 | 9.73
39 | CCOC(=O)C1=C(N)OC2=C(C(=O)CCC2)C1c1ccccc1OCC (centres unmarked) | 7.18
40 | Cc1nnc(SCc2cnc(-c3ccccc3)o2)[nH]c1=O | 13.9
41 | CCCCNc1ccc(C(=O)OCCN(C)C)cc1.Cl | 4.79
42 | COc1ccc(CNC(=O)COC(=O)c2cccnc2Nc2cccc(C(F)(F)F)c2)cc1 | 12.4
43 | COc1cccc(OC)c1C(=O)NC(=S)Nc1ccc2c(c1)C(=O)N(C)C2=O | 11
44 | Cc1ccc(NC(=O)COC(=O)Cc2c(F)cccc2Cl)cc1S(=O)(=O)N1CCOCC1 | -0.158
45 | Cc1ccc(Nc2nc3c(s2)CCC3)c(C)c1 | 12.5
46 | O=c1cc(C(F)(F)F)nc(-n2[nH]c3c(c2=O)CCCC3)[nH]1 | 16.8

Row | SMILES | hERG current change (%, negative = inhibition) at 1uM [%]
47 | COc1cc(S(=O)(=O)NC2CCCC2)ccc1F | 5.66
48 | COc1ccc(-c2nc3ccccc3c(=O)o2)cc1 | 15.2
49 | Cc1cc(=O)c2cc(Cl)ccc2[nH]1 | 12.3
50 | O=C(CSc1ncn[nH]1)N/N=C/c1ccc(C(F)(F)F)cc1 | 13.8
51 | O=C(O)C1C2C=CC(C2)C1C(=O)Nc1ccc2c(c1)OCCO2 (centres unmarked) | 11.5
52 | O=C(OCc1nnc(-c2ccccc2)o1)c1ccco1 | 2.86
53 | O=C(Cn1[nH]c(=O)c2ccccc2c1=O)OCC(=O)c1ccccc1 | 13.3
54 | Cc1cc(Nc2nc3ccccc3[nH]c2=O)n(-c2ccccc2)n1 | -4.75
55 | C=CCOc1ccc(C(=O)c2ccccc2)c(OCC(=O)NC2(C#N)CCCC2)c1 | 9.68
56 | O=C(CSc1nnnn1Cc1ccccc1)NCC(=O)c1ccccc1 | 8.34
57 | Cc1ccc(C)c(OCc2cc(C(=O)N3C[C@H]4C[C@@H](C3)c3cccc(=O)n3C4)no2)c1 | 4.66
58 | OC(CNCc1ccc2c(c1)OCO2)COc1ccccc1 (centres unmarked) | 1.66
59 | Cc1cccc(NC(=O)CNC(=O)Cc2ccc(S(=O)(=O)N3CCOCC3)s2)c1C | 8.74
60 | O=C(Cn1cc2c(n1)CCCCC2)NCCCN1CCOCC1 | 11.1
61 | Cn1c(SCc2ccccc2[N+](=O)[O-])nnc1-c1cccnc1 | 10.7
62 | Cc1nn(-c2ccccc2)c(Cl)c1/C=N/NC(=O)c1ccco1 | -9.19
63 | O=C(OC1Cn2c(=O)ccc(=O)n2C1)c1ccc([N+](=O)[O-])cc1 | 5.05
64 | COc1ccc(C(=O)c2oc3nc(C)cc(C)c3c2N)cc1 | 3.85
65 | CCOC(=O)C1CCN(S(=O)(=O)c2cnc[nH]2)CC1 | 12.8
66 | COc1cccc(NC(=O)CNS(=O)(=O)c2ccc3nc(C)sc3c2)c1 | 14.5
67 | Cc1ccc(OCCN(C)C)c([N+](=O)[O-])c1.O=C(O)C(=O)O | 8.54
68 | C[C@@H](C(=O)N1CCN(C(=O)OC(C)(C)C)CC1)n1cc(CCCN=C(NC(=O)OC(C)(C)C)NC(=O)OC(C)(C)C)nn1 | 7.38
69 | COc1ccc(NC(=O)c2cc(C)no2)cc1Cl | 13.9

Row | SMILES | hERG current change (%, negative = inhibition) at 1uM [%]
70 | COc1cc(Cn2ccnc2)c(OC)cc1Cn1ccnc1 | -5.01
71 | COc1cc(OC)cc(-c2nnc(NC(=O)CCS(=O)(=O)c3ccc(C)cc3)o2)c1 | 11.6
72 | CCC(CC)C(=O)NCc1ccccc1Cl | 15.2
73 | CC1Sc2ccc(S(=O)(=O)CCC(=O)Nc3ccccc3Cl)cc2NC1=O (centres unmarked) | 8.3
74 | Cc1ccc(-n2c(O)c(/C=C/C=Nc3ccccc3)c(=O)[nH]c2=O)cc1 | 10.2
75 | CCc1ccccc1N1CSC2=C(C#N)C(c3ccccc3F)CC(=O)N2C1 (centres unmarked) | 3.31
76 | COc1ccc(N2CCN(CC(=O)Nc3nc(C)cs3)CC2)cc1 | 15.2
77 | COCC(C)n1c(C)cc(C(=O)CSc2nc3ccccc3c(=O)[nH]2)c1C (centres unmarked) | 23
78 | CC1(C)CC(=O)C/C(=N/NC(=O)COc2ccc(Cl)cc2Cl)C1 | 6.6
79 | Cc1ccc(/C=N/NC(=O)c2nnn(-c3nonc3N)c2CSc2ccccc2)o1 | 13.9
80 | CCC(C)(C)C1CCc2[nH]nc(C(=O)NN)c2C1 (centres unmarked) | 12.7
81 | Cc1cc(C(=O)OCC(=O)Nc2cccc(S(=O)(=O)N3CCOCC3)c2)c(C)o1 | -2.17
82 | CCN(CC)C(=O)C1CCN(S(=O)(=O)c2ccc3c(c2)CCCN3C(=O)C2CCC2)CC1 | 12
83 | CCCN1C(=O)c2ccccc2NC1c1ccc(OC)cc1O (centres unmarked) | -12.3
84 | Cc1cc(NC(=O)CCCC(=O)OCC(F)(F)C(F)F)cc(C)c1C(=O)O | 14.7
85 | CC(=O)c1c(-c2ccccc2)c2cc(Cl)ccc2n(C)c1=O | 9.98
86 | Cc1noc(/C=C/c2cccnc2)c1[N+](=O)[O-] | 8.58
87 | CC(C)c1cc(C(=O)Nc2sc3c(c2C#N)CCC3)no1 | 7.25
88 | O=C(Nc1ccc(S(=O)(=O)N2CCOCC2)cc1)c1cc(S(=O)(=O)N2CCOCC2)ccc1Cl | 16.4
89 | Cc1ccc(C(C(=O)Nc2ccc(C(C)C)cc2)N(C)C(=O)c2ccc(=O)[nH]c2)cc1 (centres unmarked) | 14.8
